Tested on: primate Ig (pool of primate serum)
Experiment: In vitro antigenicity (IVA) ELISA
Conditions: serum dilution value at OD 0.3 related to standard Z00342 set to 100; below 100 = lower primate Ig-binding

Affibody® molecule XI with DOTA: Affibody molecule XI with DOTA conjugated on an internal cystein (position 42) (YAKELRNAYWEIALLPNLTNQQKRAFIRKLYDDPSQSSELLCEAKKLNDSQA)
IVA-Value: 1

From patent publication US8883120B2, “Polypeptides having affinity for HER2” (Affibody AB, priority 2007, dated 2014)
